Data taken from PubChem BioAssay AID463173 (ICCB-Longwood Screening Facility, Harvard Medical School, 2010).
In all, about 52,000 compounds went through this assay and about 4,300 (8.3%) were called active. Rule as the data show it: active = survival mostly below about 52% (no sharp cut-off); inactive = mostly above about 56%. The list shows a part of the results.

Tested on: DeltatarO mutant
Assay: growth inhibition of S. aureus wild type versus tarO mutant, primary screen, teichoic acid synthesis inhibitors, RN4220, OD600 (AID 463173)
Conditions: OD600, 18 h, stronger effect = lower value, screened at 18.75 µg/mL (by protocol)

Row | SMILES | survival
1 | CCOc1ccc2nc(C)cc(Nc3ccccc3OCC)c2c1 | inactive: 141%
2 | O=C(OCc1nc(-c2ccccc2)oc1COC(=O)c1ccco1)c1ccco1 | inactive: 72%
3 | Nc1c(Cl)ncnc1NCCO | inactive: 97%
4 | Cc1cccc(C)c1NC(=O)Cn1c(=O)n(CC2CCC(C(=O)NCCc3ccccc3)CC2)c(=O)c2ccccc21 (centres undefined) | inactive: 100%
5 | CCOC(=O)c1noc2ncnc(Nc3ccc(F)cc3F)c12 | inactive: 122%
6 | CCOC(=O)C1CCN(C(=O)C2CCN(C3=NS(=O)(=O)C(c4ccc(C)cc4)=C3CC)CC2)CC1 | inactive: 115%
7 | CCOC(=O)CSc1nc2c(sc3ccccc32)c(=O)n1CCc1ccccc1 | inactive: 60%
8 | O=[N+]([O-])c1cc(-c2nc(-c3ccccc3)no2)ccc1N1CCN(c2ccccc2)CC1 | inactive: 77%
9 | Cn1cc(S(=O)(=O)N2CCCCCC2)cc1C(=O)N1CCN(c2cccc(Cl)c2)CC1 | inactive: 68%
10 | CCOc1ccc(OC(=O)c2cn(-c3ccc(C)cc3)c(=O)c3ccccc23)cc1 | inactive: 78%
11 | COc1ccc(-c2nc3c4ccccc4n(CC(=O)Nc4cc(F)ccc4F)c(=O)n3n2)cc1 | inactive: 84%
12 | Cc1ccc(NCCOc2ccccc2)c(C)c1 | inactive: 106%
13 | Cc1coc2cc3oc(=O)c(CCC(=O)NCc4ccc(Cl)cc4)c(C)c3cc12 | inactive: 69%
14 | COc1ccc(-c2cc(C(F)(F)F)n3nc(C(=O)Nc4cc(Cl)cc(Cl)c4)cc3n2)cc1 | inactive: 86%
15 | COc1cc(-c2ccno2)ccc1S(=O)(=O)N1CCN(c2ccc(C(C)=O)cc2)CC1 | inactive: 76%
16 | CCCCC(=O)Nc1ccccc1C(=O)OCc1cc(=O)n2nc(C3CCCCC3)sc2n1 | inactive: 63%
17 | COc1cc(OC)cc(C(=O)Nc2ccccc2-c2nc3ccccc3s2)c1 | active: 17%
18 | CN(C)c1ccc(C(CNC(=O)c2ccc(C(C)(C)C)cc2)N2CCOCC2)cc1 (centres undefined) | inactive: 83%
19 | COc1ccc2[nH]c(C)c(CCNS(=O)(=O)c3cc(F)ccc3OC)c2c1 | inactive: 57%
20 | CCCOc1cccc(C(=O)Nc2cccc(NC(=O)c3ccc(C(C)(C)C)cc3)c2)c1 | inactive: 76%
21 | C=CCNC(=O)C(C)Sc1nnc2c(n1)[nH]c1ccccc12 (centres undefined) | inactive: 68%
22 | CN(C1CCCCC1)S(=O)(=O)Cc1ccccc1 | inactive: 114%
23 | COc1ccc(CCNC(=O)C2(c3cccs3)CCOCC2)cc1OC | inactive: 86%

Row | SMILES | survival
24 | CCCCN1C(=O)CN(C2CCCCCC2)C(=O)C1c1ccc(OCCC)c(OC)c1 (centres undefined) | inactive: 66%
25 | CCOc1ccc(CCNC(=O)c2nnc(Cc3cc(OC)c(OC)c(OC)c3)o2)cc1OCC | inactive: 81%
26 | O=C(CCNc1n[nH]c(=O)[nH]c1=O)N1CCCCC1 | inactive: 97%
27 | COc1ccc(N2CCN(S(=O)(=O)CCNC(=O)Cc3ccc(Cl)cc3)CC2)cc1 | inactive: 81%
28 | CCOC(=O)C1CCN(C(=O)Cn2nc(C)n3c(cc4cc(F)ccc43)c2=O)CC1 | inactive: 91%
29 | COc1cc(C(=O)NCC(c2cccnc2)N2CCc3ccccc32)cc(OC)c1OC (centres undefined) | active: 44%
30 | Cc1ccccc1Cn1c(=O)n(Cc2ccc(Cl)cc2)c(=O)c2cccnc21 | inactive: 82%
31 | COc1cc(Cl)c(C)cc1NC(=O)c1sc2nc3n(c(=O)c2c1C)CCCCC3 | inactive: 52%
32 | COc1ccc(OC)c(NC(=O)CSC2=Nc3ccccc3C3=NC(CC(=O)NCc4ccc5c(c4)OCO5)C(=O)N23)c1 (centres undefined) | inactive: 80%
33 | CCOC(=O)c1c(NC(=O)c2nc(SC(C)C)ncc2Cl)sc2c1CCCC2 | active: 56%
34 | O=c1cc(N2CCN(c3ccc(F)cc3)CC2)[nH]c(=O)n1-c1ccc(Br)cc1 | inactive: 124%
35 | Cn1c(SCc2ccc(C(F)(F)F)cc2)nc2c([nH]c3ccccc32)c1=O | inactive: 88%
36 | Cc1ccc[n+](CC(=O)c2cccs2)c1 | inactive: 106%
37 | Cc1ccc2c(C)c(C(=O)N(Cc3ccc(Cl)cc3)C3CCS(=O)(=O)C3)oc2c1 (centres undefined) | active: 34%
38 | O=C1[C@@H]2CSC(c3ccc(C(F)(F)F)cc3)N2C(=O)N1c1ccccc1 (some centres undefined) | inactive: 81%
39 | CCCNc1c(NC(=O)c2ccc(OCCC)cc2)c(=O)oc2ccccc12 | inactive: 78%
40 | O=C1CN(C(=O)c2ccccc2C(F)(F)F)C(c2ccccc2)c2cc(F)ccc2N1 (centres undefined) | inactive: 72%
41 | COc1cc2c(cc1OC)C(COc1ccc3c(C)cc(=O)oc3c1)N(C(=O)c1ccc(Cl)cc1)CC2 (centres undefined) | inactive: 73%
42 | Cc1ccc(C(=O)C2=C(O)C(=O)N(CCc3ccccc3)C2c2ccncc2)o1 (centres undefined) | inactive: 103%
43 | CCN(CC)C(=O)Cn1c(=O)n(Cc2ccc(C(=O)NCc3ccccc3Cl)cc2)c(=O)c2ccccc21 | inactive: 115%
44 | COc1cc(C2C(=O)N(C3CCCCC3)CC(=O)N2Cc2ccc(C)cc2)ccc1OC(C)C (centres undefined) | inactive: 89%
45 | O=C(CSc1nccn1-c1ccc(F)cc1)Nc1ccc(OC(F)(F)F)cc1 | inactive: 78%
46 | CCOC(=O)c1c(-c2ccc(Br)cc2)csc1NC(=O)c1ccccc1F | inactive: 60%

Row | SMILES | survival
47 | CC(C)OC(=O)/C(C#N)=C\c1cccs1 | inactive: 104%
48 | CCC1CCCCN1S(=O)(=O)c1ccc(C(=O)Nc2sc3c(c2C(=O)NC)CCC3)cc1 (centres undefined) | inactive: 78%
49 | CCOCCCN1C(=O)CN(C2CCCCCC2)C(=O)C1c1ccc(OC(C)C)c(OC)c1 (centres undefined) | inactive: 97%
50 | CN1C(=O)CSC1=Nc1ccc(F)cc1 | inactive: 89%
51 | COc1ccc(OCC(=O)OCc2cc(=O)n3cc(C)sc3n2)cc1 | active: 6%
52 | CCc1ccccc1NC(=O)c1ccc2c(O)c(S(=O)(=O)c3ccccc3)c(=O)[nH]c2c1 | inactive: 92%
53 | COc1ccccc1CNC(=O)c1oc2ccc(S(=O)(=O)N3CCCCC3)cc2c1C | inactive: 91%
54 | COc1ccc(NC(=O)c2cc3nc(-c4ccc(C)c(C)c4)cc(C(F)(F)F)n3n2)cc1 | inactive: 60%
55 | CCOc1ccc(NC(=O)CSc2nccn2Cc2ccco2)cc1 | inactive: 91%
56 | CCC(=O)Nc1ccc2c(c1)C(=O)OC2 | inactive: 77%
57 | COc1ccc(-c2nc3ccccc3s2)cc1NC(=O)COc1ccc(C)cc1 | inactive: 129%
58 | COc1ccc(-c2cc(OC(=O)c3ccc(Cl)cc3)c3c(C)oc(C)c3c(=O)c2)cc1 | inactive: 80%
59 | Cc1ccc(N(Cc2ccc(C(=O)NCc3ccco3)cc2)S(C)(=O)=O)cc1C | inactive: 93%
60 | Cc1ccc(C(=O)Nc2cccc(-c3nc4cccnc4s3)c2C)cc1 | inactive: 111%
61 | Cc1cccc(CN2C(=O)c3ccccc3S(=O)(=O)c3ccc(C(=O)NCCC4=CCCCC4)cc32)c1 | inactive: 77%
62 | COC(=O)c1ccc(Nc2nnc(-c3ccc(C)c(S(=O)(=O)N4CCN(C)CC4)c3)c3ccccc23)cc1 | inactive: 89%
63 | CCCC(C)NS(=O)(=O)Cc1ccccc1 (centres undefined) | inactive: 83%
64 | Cc1ccc(CSc2ncc(Cl)c(C(=O)NCCc3ccc(S(N)(=O)=O)cc3)n2)cc1 | inactive: 44%
65 | CCOC(=O)C1CCN(C(=O)CCS(=O)(=O)c2cc3c(cc2Cl)NC(=O)CO3)CC1 | inactive: 92%
66 | Cc1ccc(N(CC(=O)NCc2ccc(Cl)cc2)S(=O)(=O)N(C)C)cc1 | inactive: 83%
67 | COc1ccc(NC(=O)CSc2nc(-c3ccc(OC)cc3)[nH]c2-c2ccc(OC)cc2)cc1 | inactive: 71%
68 | Cc1ccccc1NC(=O)CSc1nc(-c2ccccc2C)nc2cc(=O)[nH]n12 | inactive: 107%
69 | CCOc1ccc(NC(=O)N2CCN(S(=O)(=O)c3ccc4c(ccn4C)c3)CC2)cc1 | inactive: 78%

Row | SMILES | survival
70 | COc1ccccc1N(CC(=O)NCCSCc1ccccc1)S(=O)(=O)c1ccc(C)cc1 | active: 41%
71 | CC(=O)N1CCN(c2csc3ccc(F)cc3c2=O)CC1 | inactive: 90%
72 | CCc1ccc(C(=O)c2cn(CC(=O)Nc3ccc(F)cc3)c3ccc(OC)cc3c2=O)cc1 | inactive: 74%
73 | COc1ccc(NC(=O)Cn2c(=O)n(C(C)C)c(=O)c3oc4ccccc4c32)cc1Cl | active: 42%
74 | O=C1CN(C(=O)Cc2ccc(F)cc2)C(c2ccccc2)c2cc(Cl)ccc2N1 (centres undefined) | inactive: 127%
75 | CCCN1CCN(CCNC(=O)Nc2ccc(OC)cc2OC)CC1 | inactive: 88%
76 | O=C(CC1C(=O)N(c2ccccc2)C(=O)N1CCC1=CCCCC1)Nc1ccc(F)cc1 (centres undefined) | inactive: 48%
77 | COc1ccc(C2C(C#N)=C(N)OC3=C2C(=O)CCC3)cc1 (centres undefined) | inactive: 97%
78 | O=C(NC1CCCCC1)C1CC(c2ccccc2O)=NO1 (centres undefined) | inactive: 91%
79 | Cc1ccc(Cl)cc1NC(=O)C(C)n1nnc2sc(-c3ccccc3)cc2c1=O (centres undefined) | inactive: 59%
80 | COC(=O)c1cccc(-n2c(CCC(=O)O)ccc2-c2ccc(OC)cc2)c1 | inactive: 65%
81 | COc1cc(/C=C/C(=O)O)cc(S(=O)(=O)N2CCc3ccccc32)c1OC | inactive: 95%
82 | CCCCOc1ccc(S(=O)(=O)Nc2ccc(-c3ccc(N4CCCCCC4)nn3)cc2)cc1 | inactive: 72%
83 | COc1cccc(CNC(=O)CCc2cn(Cc3ccccc3Cl)c3ccccc23)c1 | inactive: 104%
84 | CCOC(=O)c1c(C)oc2ncnc(N3CCN(c4ccccc4OC)CC3)c12 | inactive: 67%
85 | COc1ccc(Cn2c(SCc3ccc(C(=O)NC4CCCC4)cc3)nc3ccncc32)cc1 | inactive: 60%
86 | O=C(COc1ccc2oc3c(c2c1)CCCC3)Nc1ccc(Br)cc1 | inactive: 89%
87 | Cc1nn(-c2ccccc2)c(OC(=O)C(C)C)c1Sc1ccccc1 | inactive: 48%
88 | Brc1cccc(CNCCSc2nnnn2-c2ccccc2)c1 | inactive: 71%
89 | CCc1ccccc1N(C)C(=O)Cc1c(C(=O)O)c(C)cn1C | inactive: 94%
